According to PubChem BioAssay AID1347073 (National Center for Advancing Translational Sciences (NCATS), 2019):
Screen size: about 45,000 compounds; about 200 (0.44%) were called active. Roughly 7% stayed inconclusive and do not appear here. The call rests on the fitted dose curve; in most records, active means well fitted activation curve with a large enough effect; inconclusive means small, poorly fitted or top-dose-only effect; inactive means no such curve, though single readings can be large or run the other way. The list shows a part of the results.

Test: qHTS of TDP-43 Inhibitors: NCGC Sytravon Library Screen; further: 0% is about no effect; nearly all actives have a fitted effect of over 55% in size
Conditions: yeast TDP-43 toxicity rescue, BacTiter-Glo growth, 24 h; series mostly up to 46.1 µM; growth rescue (activation): at the top concentration
How it was run: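 TDP-43-expressing yeast, pregrown in raffinose, seeded at OD600 0.02 in galactose medium with compound for 24 hr at 30 deg C. Growth read by BacTiter-Glo luminescence, so rescue of toxicity appears as activation.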

Row | SMILES | growth rescue (activation)
1 | CCOc1ccc(N(C)c2ccc(/C=C3/SC(=S)NC3=O)cc2)cc1 | inactive: -6.3%
2 | COc1ccc(-c2nc(N)sc2C2(O)C(=O)Nc3c(Br)cc(F)cc32)cc1OC (stereo not drawn) | inactive: 19.9%
3 | O=C(Cn1nnc(-c2cc(Cl)ccc2-n2cnnn2)n1)N1CCCc2ccccc21 | inactive: -10.7%
4 | O=C(CNC(=O)c1ccccc1F)NC1CCN(Cc2ccccc2)CC1 | inactive: -2.3%
5 | COc1ccc(/C=C/CN2CCN(Cc3ccc(F)cc3)C(CCO)C2)cc1 (stereo not drawn) | inactive: -11%
6 | CCOc1ccc(C2C(C#N)=C(N)Oc3cc(C)[nH]c(=O)c32)cc1OC (stereo not drawn) | inactive: 1.11%
7 | O=C(COc1ccc(Br)cc1)NCc1cn2ccccc2n1 | inactive: 26.8%
8 | O=C(CCC1CCCN(C(=O)c2cc(C3CC3)[nH]n2)C1)N1CCN(c2ccccn2)CC1 (stereo not drawn) | inactive: 1.64%
9 | Cc1ccc(C)c(NC(=O)CSc2nnc(C3CCCCC3)o2)c1 | inactive: 8.97%
10 | COCCNC(=O)c1ccc(C(=O)C(=O)c2ccccc2)cc1 | inactive: 13.4%
11 | Cc1ccc(/C=N/Nc2nncn2N)cc1 | inactive: 9.63%
12 | Cn1c(=O)n(CC(N)=O)c2ccccc21 | inactive: 6.45%
13 | Cn1c(SCC(=O)N/N=C/C=C/c2ccco2)nc2ccccc21 | inactive: 6.23%
14 | Cc1ccc(CC2C(=O)N(c3ccc(C)cc3)C(=O)C2C)cc1 (stereo not drawn) | inactive: 17.2%
15 | Fc1cccc(Nc2nc(-c3ccncc3)nc3ccccc23)c1 | inactive: 18.9%
16 | CCN1CC(=O)Nc2cc(S(=O)(=O)N3CCOCC3)ccc21 | inactive: -7.07%
17 | O=C(NNC(=S)NC1CCCCC1)c1ccccc1Cl | inactive: 18.3%
18 | O=C(CCNC(=O)c1ccco1)Nc1ccc(OC(F)(F)F)cc1 | inactive: 11.1%
19 | Cc1cc(NC(=O)c2ccco2)c(=O)n(Cc2cccc(C(F)(F)F)c2)c1 | inactive: 4.02%
20 | CCOC(=O)NNC(=O)C12CC3CC(CC(C3)C1)C2 | inactive: 0.0433%
21 | Fc1cccc(Nc2c3c(nc4ccccc24)CCC3)c1 | inactive: 6.4%
22 | CN(C)CCNC(=O)COc1ccc(C23CC4CC(CC(C4)C2)C3)cc1 | inactive: 24.8%
23 | O=C(COc1ccccc1-c1ccccc1)NCCN1C(=O)S/C(=C\c2cccnc2)C1=O | inactive: -15.1%

Row | SMILES | growth rescue (activation)
24 | CC(=O)c1ccc(OC(=O)c2nc(-c3ccccc3)oc2C)cc1 | inactive: 8.74%
25 | CCCC(=O)NC(c1ccc(OC)c(OC)c1)c1cc(Cl)c2cccnc2c1O (stereo not drawn) | inactive: 4.27%
26 | NNC(=O)CCn1c2ccccc2c2ccccc21 | inactive: 7.33%
27 | Cc1sc2nc(CSc3ccccc3)nc(N3CCC(C(N)=O)CC3)c2c1C | inactive: 11.9%
28 | COc1ccc(C(CC(=O)O)NS(=O)(=O)c2ccc3c(c2)NC(=O)CO3)cc1 (stereo not drawn) | inactive: 5.59%
29 | Cc1ccc(N(C(=O)CNC(=O)c2ccco2)C(C(=O)NC2CCCCC2)c2cccnc2)cc1F (stereo not drawn) | inactive: 5%
30 | CC(=O)c1ccccc1N(C(=O)c1ccco1)C(C(=O)NC1CCCC1)c1ccc(C)cc1 (stereo not drawn) | inactive: 6.4%
31 | COc1cc(/C(C)=N/Nc2ccc(C(=O)O)cc2)cc(OC)c1OC | inactive: 29.4%
32 | CN(C)C(CNC(=O)C1CCN(S(=O)(=O)c2ccc(Cl)cc2)CC1)c1ccccc1 (stereo not drawn) | inactive: 5.16%
33 | CC(OC(=O)CCc1nc2ccccc2c(=O)[nH]1)C(=O)NC1CCCC1 (stereo not drawn) | inactive: 1.86%
34 | N/C(=N/O)c1cccn1Cc1ccccc1[N+](=O)[O-] | inactive: 4.53%
35 | COc1ccc(NC(=S)NCc2cccnc2)cc1 | inactive: -9.23%
36 | O=C(NCCN1CCOCC1)C1CC(=O)N(c2ccc(Cl)cc2)C1 (stereo not drawn) | inactive: 2.02%
37 | CCCN1C(=O)c2cc(C(=O)Nc3ccc(OC)cc3OC)ccc2C1Nc1ccc(OC)cc1OC (stereo not drawn) | inactive: 9.2%
38 | O=C(N/N=C/c1ccc(O)c2ccccc12)c1cccnc1 | inactive: 2.15%
39 | CCc1cc(C(=O)N2CCN(c3ncc(C(F)(F)F)cc3Cl)CC2)sc1C | inactive: 18.9%
40 | Cc1ccc2c(c1)c(C1=NC(=S)NC1=O)c(O)n2C | inactive: 0.0829%
41 | COc1ccc(N=C2SC(CC(=O)Nc3ccccc3F)C(=O)N2Cc2ccco2)cc1 (stereo not drawn) | inactive: -2.34%
42 | Cc1sc2c(c1C)c(=O)n(-c1ccc(F)cc1)c(=O)n2CC(=O)NCc1ccco1 | inactive: 16.4%
43 | COc1ccc(N(C)S(=O)(=O)c2ccc(Cl)c(C(=O)NCCc3ccc(Cl)cc3)c2)cc1 | inactive: -11%
44 | CN(C)S(=O)(=O)c1cccc(C(=O)NCCOC(=O)c2cc(F)c(F)cc2Cl)c1 | inactive: 6.31%
45 | O=C(N/N=C/c1cc(Cl)ccc1O)c1ccc(Br)cc1 | inactive: -26.2%
46 | Cc1oc2c(O)c(O)ccc2c(=O)c1-c1ccc(Cl)cc1 | inactive: 2.79%

Row | SMILES | growth rescue (activation)
47 | O=C(c1ccccc1)c1c[nH]c(C(=O)NNc2cccc(Cl)n2)c1 | inactive: -2.05%
48 | CCOc1cc(NC(=S)NCCCN2CCOCC2)c(OCC)cc1NC(=O)c1ccccc1 | inactive: 6.38%
49 | COc1ccc2c3c([nH]c2c1)C1(NCC3)C(=O)Nc2ccccc21 (stereo not drawn) | inactive: 6.34%
50 | Cc1ccc(NC(=O)c2ccc(OC(=O)COc3ccc(Cl)cc3C)cc2)cc1 | inactive: 7.56%
51 | Cc1nn(-c2ccccc2)c(C)c1C(=O)OC(C)C(=O)NC1CCCCC1 (stereo not drawn) | inactive: 17.5%
52 | CC(=O)c1ccccc1NC(=O)c1ccc(OCc2c(C)noc2C)cc1 | inactive: -19.9%
53 | CN(c1cccc(NC(=O)CN(c2ccc(Cl)c(Cl)c2)S(=O)(=O)c2ccccc2)c1)S(C)(=O)=O | inactive: -6.72%
54 | O=C(Nc1ccc(Br)cc1)c1cc(-c2ccncc2)nc2ccccc12 | inactive: 25.6%
55 | COc1ccc2c(c1)C=C(CN1CCN(C(C)C)C(CCO)C1)CO2 (stereo not drawn) | inactive: 4.3%
56 | Nc1c(C(=O)N2CCCC2)sc2nc(-c3ccccc3)ccc12 | inactive: 14.3%
57 | COc1cc(/C=N/NC(=O)c2ccc([N+](=O)[O-])cc2Cl)cc(Br)c1O | inactive: 16.9%
58 | Cc1cc(Cl)c2oc(C(=O)NCCC3CCCCO3)c(C)c2c1 (stereo not drawn) | inactive: 21%
59 | CS(=O)(=O)c1ccc2nc(NC(=O)c3ccc(=O)[nH]c3)sc2c1 | inactive: -4.43%
60 | CC1CCCCC1NC(=O)COC(=O)c1c2c(nc3ccccc13)/C(=C\c1ccco1)CC2 (stereo not drawn) | inactive: 3.48%
61 | Cc1cc(CNC(=O)C2CCC(=O)N(Cc3ccccc3F)C2)on1 (stereo not drawn) | inactive: -16.6%
62 | CC(C)(C)CN1CCNC(=O)C1CC(=O)NCCN1CCCc2ccccc21 (stereo not drawn) | inactive: 5.13%
63 | Cc1cccn2c(=O)c3cc(C(=O)NC4CCCC4)c(=N)n(CCc4ccccc4)c3nc12 | inactive: -2.42%
64 | CCn1c(SCC(=O)N/N=C/C=C\c2ccco2)nc2ccccc21 | inactive: -3.78%
65 | CN(C)c1nc(N(C)C)n(C(=O)c2ccc(F)cc2)n1 | inactive: 9.88%
66 | CC1CC1C(=O)Nc1nc2ccc(S(C)(=O)=O)cc2s1 (stereo not drawn) | inactive: 5.7%
67 | Cc1cccn2c(=O)c3cc(C(=O)NCc4ccco4)c(=N)n(CCc4ccccc4)c3nc12 | inactive: 7.8%
68 | O=C(c1ccccc1)c1cccn1CC(=O)N1CCCCCC1 | inactive: 16.2%
